Laboratory results as given in PubChem BioAssay AID488969 (Vanderbilt High Throughput Screening Facility, 2010).
Whole data set: some 110,000 compounds, median “z-score” near -0.1, cut for the highest 2% near 2. This is one part of the list.

target: Metabotropic glutamate receptor 8 (Rattus norvegicus) (UniProt P70579); assay: rat mGluR8 modulators via GIRK flux, primary screen, cell-based, thallium flux, HTS (AID 488969); details: HEK293 rat mGluR8, GIRK (G protein-gated inwardly rectifying potassium channel) thallium flux, FluoZin2; at 10 µM; stronger effect = higher value; submaximal glutamate (EC20) added with thallium
Chain of UniProt P70579 (P70579 whole entry, looked up): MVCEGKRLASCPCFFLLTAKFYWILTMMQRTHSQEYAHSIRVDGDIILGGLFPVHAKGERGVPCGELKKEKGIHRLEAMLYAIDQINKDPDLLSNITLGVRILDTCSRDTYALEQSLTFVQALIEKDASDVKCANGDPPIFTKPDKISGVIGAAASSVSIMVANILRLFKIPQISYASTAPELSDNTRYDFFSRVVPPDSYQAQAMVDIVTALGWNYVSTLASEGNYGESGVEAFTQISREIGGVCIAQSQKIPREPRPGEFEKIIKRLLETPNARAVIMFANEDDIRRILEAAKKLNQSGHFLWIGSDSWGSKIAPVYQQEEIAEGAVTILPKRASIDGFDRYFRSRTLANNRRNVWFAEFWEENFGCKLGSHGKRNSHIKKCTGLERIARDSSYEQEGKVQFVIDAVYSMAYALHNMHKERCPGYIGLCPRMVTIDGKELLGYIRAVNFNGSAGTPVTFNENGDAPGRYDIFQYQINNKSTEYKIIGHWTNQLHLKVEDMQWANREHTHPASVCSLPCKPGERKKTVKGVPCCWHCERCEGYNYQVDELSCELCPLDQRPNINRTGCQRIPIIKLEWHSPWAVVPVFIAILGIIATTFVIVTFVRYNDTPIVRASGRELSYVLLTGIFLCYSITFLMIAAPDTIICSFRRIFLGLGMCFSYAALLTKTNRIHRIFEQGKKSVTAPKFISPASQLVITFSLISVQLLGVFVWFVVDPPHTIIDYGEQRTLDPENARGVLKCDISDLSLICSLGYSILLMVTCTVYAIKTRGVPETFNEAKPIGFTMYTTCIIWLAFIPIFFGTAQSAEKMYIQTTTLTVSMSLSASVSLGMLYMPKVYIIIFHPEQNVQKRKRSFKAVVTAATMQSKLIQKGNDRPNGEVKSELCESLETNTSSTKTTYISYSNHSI

SMILES	z-score
S=C(NCc1ccco1)N1CCN(Cc2ccco2)CC1	-0.0222
CC(=O)c1ccc(CCCCCCCCCC(=O)O)s1	-0.202
CCc1nnc2sc(-c3ccc(NC(=O)CSc4ccc(Cl)cc4)cc3)nn12	-0.223
O=C(c1ccc(CS(=O)(=O)Cc2ccc(Cl)cc2)o1)N1CCCC1	0.047
COc1cc2oc3ccccc3c2cc1N(CC(=O)N(C)C)S(=O)(=O)c1ccccc1	0.121
C=CCNC(=O)c1onc(CSc2ccc(C)c(C)c2)c1C(=O)O	-0.413
O=C1NC(c2ccncc2)Nc2ccccc21 (stereo unspecified)	-0.555
CCOCCC(=O)Nc1cc(Cl)ccc1OC	-0.0457
Cc1ccc(S(=O)(=O)CCC(=O)O)cc1C	-0.128
COc1ccc(C2=NO[C@@H]3[C@@H]4C[C@@H]([C@H]5C(=O)N(C)C(=O)[C@@H]45)[C@H]23)cc1	0.241
Cc1ccc(OCc2ccc(C(=O)O)o2)c([N+](=O)[O-])c1	0.133
COc1ccc(-c2cc(C(F)(F)F)n3nc(C(=O)Nc4cc(C)on4)cc3n2)cc1OC	0.0365
COc1ccc(OCc2cccc(C(=O)Nc3cc(C)on3)c2)cc1	-0.194
Cc1nn(-c2ccc(F)cc2)c(Cl)c1/C=N/NC(=O)c1cccs1	0.0105
Clc1ccccc1SCc1nc2ccccc2[nH]1	0.555
O=C(Nc1ccccc1)OC(CN1CCCCC1)C(F)(F)F (stereo unspecified)	-0.286

SMILES	z-score
CCCC(=O)n1nc(-c2cccnc2)nc1N	0.575
COc1ccc(OC)c(-c2csc(N(Cc3ccco3)C(=O)c3cccs3)n2)c1	-0.0951
O=[N+]([O-])c1cccc(Cl)c1NCCNS(=O)(=O)c1ccccc1	-0.368
COc1cccc(-n2c(C)nnc2SCC(=O)Nc2ccccc2N2CCOCC2)c1	-0.0575
Cc1cc(=O)oc2cc(OCC(O)CN3CCc4ccccc4C3)ccc12 (stereo unspecified)	-0.0362
Cc1cc(C)c(OCCN2C(=O)NC(C)(C)C2=O)c(Cl)c1	-0.0111
CCC(C)OC1OC(CO)C(O)C(O)C1NC(C)=O (stereo unspecified)	-0.208
CC(C)c1nc2c(c(=O)c3ccccc3n2C)c(=O)n1-c1ccc(F)cc1	-1.91
CC1(C)CC(=O)C2=C(C1)Nc1cc3c(cc1C2c1ccc(F)cc1)OCO3 (stereo unspecified)	-0.267
O=C(/C=C/N1CCOCC1)c1coc2ccccc12	0.828
CC(=O)c1ccc(N2CCN(C(=O)C3CCCN(S(=O)(=O)c4cnc[nH]4)C3)CC2)cc1 (stereo unspecified)	-0.164
CNS(=O)(=O)c1ccc(NC(=O)c2ccccn2)cc1	-0.0858
Cc1ccc(OCC(=O)N2CCN(c3nnc(-c4ccccc4)c4ccccc34)CC2)cc1	-0.206
CCCSc1n[nH]c(NC(C)=O)n1	-0.053
CCS(=O)(=O)NCc1ccc2c(c1)cc(C)n2C	0.0119
